Data as given in article PMC4336329 (PLoS ONE, 2015).
Hit rate of the full screen: of about 310,000 compounds, about 14,000 (4.5%) showed an effect of 50% or more. Effects have a minus sign here. The list shows a part of the results.

Target: human ether-à-go-go-related gene (hERG) potassium channel (human, UniProt Q12809)
Assay: primary screen, population patch clamp on CHO cells stably expressing hERG
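Note: peak tail current of the secondary pulse compared with the same well before compound.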

Chain of human ether-à-go-go-related gene (hERG) potassium channel (Q12809 whole entry, looked up): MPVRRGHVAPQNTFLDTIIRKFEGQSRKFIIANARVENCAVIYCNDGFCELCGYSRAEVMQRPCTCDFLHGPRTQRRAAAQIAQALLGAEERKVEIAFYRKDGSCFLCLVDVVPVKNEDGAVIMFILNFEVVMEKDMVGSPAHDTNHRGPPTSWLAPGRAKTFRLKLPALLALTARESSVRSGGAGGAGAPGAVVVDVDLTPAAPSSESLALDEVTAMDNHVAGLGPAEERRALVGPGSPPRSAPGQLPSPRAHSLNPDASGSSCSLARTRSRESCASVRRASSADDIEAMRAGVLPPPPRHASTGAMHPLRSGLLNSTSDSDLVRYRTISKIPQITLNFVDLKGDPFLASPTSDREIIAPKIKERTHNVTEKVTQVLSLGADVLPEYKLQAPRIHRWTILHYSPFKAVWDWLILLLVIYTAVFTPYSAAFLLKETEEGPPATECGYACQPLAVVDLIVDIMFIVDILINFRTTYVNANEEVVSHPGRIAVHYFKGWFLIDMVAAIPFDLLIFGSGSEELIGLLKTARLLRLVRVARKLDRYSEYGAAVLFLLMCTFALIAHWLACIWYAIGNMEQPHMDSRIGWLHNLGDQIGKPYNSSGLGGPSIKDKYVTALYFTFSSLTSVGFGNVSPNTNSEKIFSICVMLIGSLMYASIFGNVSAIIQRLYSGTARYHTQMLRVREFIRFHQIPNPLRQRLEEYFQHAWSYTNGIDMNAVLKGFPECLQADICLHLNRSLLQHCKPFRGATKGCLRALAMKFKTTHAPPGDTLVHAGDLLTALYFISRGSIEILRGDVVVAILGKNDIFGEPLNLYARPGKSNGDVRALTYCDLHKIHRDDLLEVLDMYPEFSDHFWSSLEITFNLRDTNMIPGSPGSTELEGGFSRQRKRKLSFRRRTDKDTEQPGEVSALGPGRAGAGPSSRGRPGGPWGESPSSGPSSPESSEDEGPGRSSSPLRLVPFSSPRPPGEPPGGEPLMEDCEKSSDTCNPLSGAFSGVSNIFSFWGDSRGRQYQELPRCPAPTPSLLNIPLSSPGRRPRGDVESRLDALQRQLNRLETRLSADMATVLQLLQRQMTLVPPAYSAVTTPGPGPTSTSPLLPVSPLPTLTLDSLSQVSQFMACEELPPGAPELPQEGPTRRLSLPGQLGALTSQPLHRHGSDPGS

SMILES | hERG current change (%, negative = inhibition) at 10uM [%]
Cc1c(C#N)c2ccccc2n1CC(=O)NCc1cccnc1 | -6.24
CCOC(=O)CC(=O)CSc1n[nH]c(=O)[nH]c1=O | 15.1
CC1CCc2cc(F)ccc2N1C(=O)CSc1nnc2c3cc(F)ccc3n(C)c2n1 (stereo not drawn) | 5.53
Cc1cccc(/C=C2/Sc3ccc(C(=O)N4CCOCC4)cc3NC2=O)c1 | -6.21
CN1CCN(c2ccc([N+](=O)[O-])cc2S(=O)(=O)N2CCOCC2)CC1 | -16.6
Cc1ccccc1-n1c(SCC(=O)N2CCN(c3ccccn3)CC2)nnc1N1CCOCC1 | -17.6
O=C(CSc1nc2ccc(NC(=O)CSc3nnnn3-c3ccccc3)cc2s1)Nc1ccccc1 | 0.337
CCN(c1ccccc1)S(=O)(=O)c1ccc(F)c(C(=O)O)c1 | -24.7
Cc1cc(C)c(C)c(S(=O)(=O)N2CCC(C(=O)NNC(=O)c3ccccc3O)CC2)c1C | 8.88
COc1ccc(CNCC(O)COc2cccc3c2OC(C)(C)C3)cc1.Cl (stereo not drawn) | -60.5
CCOC(=O)Cn1c(CN2CCOCC2)nc2c1c(=O)n(C)c(=O)n2C | 5.62
O=C(CCNS(=O)(=O)/C=C/c1ccccc1)NCCc1c[nH]c2ccccc12 | 3.88
COc1cc(C(=O)NCCC(=O)N2CCN(C)CC2)cc(OC)c1OC | 10
Cc1ccc(-c2cc(C(=O)NC3CCCC3)no2)cc1 | 16.6
COc1ccc(C2SCC(=O)N2Cc2ccccc2)cc1 (stereo not drawn) | -0.516
Fc1ccc(Oc2cnns2)cc1 | 14.3
Cc1cccc2nc(Cn3c(=O)n(CCCC(=O)NCc4ccco4)c(=O)c4ccccc43)cc(=O)n12 | -23
COc1cccc(-c2csc(/C(C#N)=C/Nc3cc4oc5ccccc5c4cc3OC)n2)c1 | 12.8
NC(=O)c1cnn(Cc2ccc(Cl)cc2)c1N | 3.73
Cc1c(Cl)cccc1NC(=O)c1nc(C)n(-c2cc(OC(C)C)c(Cl)cc2Cl)n1 | 21.6
COc1ccccc1C(=O)NCC(=O)N/N=C/c1cn[nH]c1-c1ccccc1 | -2.63
COc1ccc(CCNC(=O)CCc2nnc(Cc3ccc4c(c3)OCO4)o2)c(OC)c1 | -3.93
Cc1ccccc1C(=O)Nc1nnc(S(=O)(=O)N(C)Cc2ccco2)s1 | 6.88
CCCCc1ccc(Nc2ncnc3nc[nH]c23)cc1 | -5.61
